Measured values from the RNAGym collection of RNA variant scans (doi:10.1093/nar/gkz1192).
The source gives no read counts; variants with many changes may rest on few reads.

B1: CPEB3 Ribozyme (parent)
chain: UAACAGGGGGCCACAGCAGAAGCGUUCACGUCGCAGCCCCUGUCAGAUUCUGGUGAAUCUGCGAAUUCUGCUGUAUAUCUC

Variants of: B1
Assay: self-cleavage, relative activity (ratio to wild type); higher = more cleavage; in vitro, sequencing
Summary of the method: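 CPEB3 self-cleaving ribozyme mutant libraries were made by rounds of error-prone PCR, barcoded, and transcribed in vitro with T7 RNA polymerase for 5 hours at 37°C. Cleavage occurred during transcription and a 15 min DNase I step before EDTA stop. RNAs were reverse transcribed with template switching and Illumina-sequenced, with DNA sequencing mapping barcodes to variants. Relative activity is the variant's cleaved/total read fraction divided by wild type's (minimum 5 reads), averaged across three batches.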

| Variant | self-cleavage |
| --- | --- |
| UAACAGGGGGCUACAGCAGUAGCGUUCACGUCGCAGCCCCAGACAGAUUCUGGUGAAUCUGCGAAUUCUGCUGUAUAUCUC [C12U A20U U41A U43A] | 0.06 |
| UAACAGGGGGCUACAGCGGAAGCGUUCACGUCGCAGCCCCUGUCAGACUCUGGUGUAUCUGCGAAUUCUGCUGUAUAUCUC [C12U A18G U48C A56U] | 0.17 |
| UAACAGGGGGCUACAGCAGAGGCGUUCUCGUCGCAGCCCCUGUCAGAUUCUGGUGAAUCUGCGAAUUCUGCUGUAUAUCUC [C12U A21G A28U] | 0.9 |
| UAACAGGGGGCCCCGGCAGAAGCGUUCACGUCGCAGCCCCUGUCAGAUUCUGGAGAAUCUGCGGAUUAUGCUGUAUAUCUC [A13C A15G U54A A64G C68A] | 0.15 |
| UAACAGGGGGCUACAGUAGAAGCGUUCACGUCGCAGCCCCUGUCGGAUUCUGGUGAACCUGCGAGUUCUGCUGUAUAUCUC [C12U C17U A45G U58C A65G] | 0.17 |
| UAACAGGGGGCCCCGGCAGAAGCGUUCACGUCGCAGCCCCAGUCAGAUUCUGGUGAAUCUGCGGAUUCUGCUGUAUAUCUC [A13C A15G U41A A64G] | 0.09 |
| UAACAGGGGGCUACAGCAGAAGCGUUCACGUCGCAGCCCCUGUCAGAUUCUGGUGAAACUGCGGAUUCUGCUGUAUAUCUC [C12U U58A A64G] | 0.53 |
| UAACAGGGGGCUACAGCAGAAGCGUUCACGUCGCAGCCCCUGUCAGAUUCUGGUGAGUCUGCGAAUUCUGCUAUAUAUCCC [C12U A57G G73A U80C] | 1.31 |
| UAACAGGGGGCUACAGCAGAAGCGUUCACGUCGCAGCCCCUGUCUGAUUCUGAUGAAUCAGCGAAUUCUGCUGUAUAUCUC [C12U A45U G53A U60A] | 1.25 |
| UAACAGGGGGCUACAGCAGAAGCGUCCACGUCGCAGCCCCUGUCAGAUUCAGGUGAAUCUGCGAAUUCUGCUGUAUAUCUC [C12U U26C U51A] | 0.69 |
| UAACAGGGGGCCCCAGCUGAAACGUUCACGUCGCGGCCCCUGUCGGAUCCUGGUGAAUCUGCGAAUUCUGCUGUAUAUCUC [A13C A18U G22A A35G A45G U49C] | 0.05 |
| UAACAGGGGGCUACAGCAGAAGCGUUCACGUCGCAGCCCUUGUCAGAUUCUGGUGAAUCUGCGAAUUCUGCCGUAUAUCUC [C12U C40U U72C] | 1.19 |
| UAACAGGGGGCUACAGCAGGAGCGUUCACGUCGCAGCCCCUGUCAGGUUCUGGUGAAUCUGCGAAUUCUGCUGUAUAUCUC [C12U A20G A47G] | 0.74 |
| UAACAGGGGGCCCCGGCAGAAGCGUUCACGUCGCAGCCCCUGUCGGAUUCUGGUGAAUCUGCGAAUUCUGCUGUAUAUCUC [A13C A15G A45G] | 0.71 |
| UAACAGGGGGCUACAGCAGAAGCGUUCACGUCGCAGCCCCUGUCAGAUUCUGGUGUAUCCGCGAAUCCUGCUGUAUAUCUC [C12U A56U U60C U67C] | 0.31 |
| UAACAGGGGGCUACAGCUGAAGCGUUCACGUCGCAGCCCCUGUCAGAUUCUGGCGAAUCUGCGAAUUCUGCUGUAUAUCUC [C12U A18U U54C] | 0.49 |
| UAACAGGGGGCUACAGCAGAAGCGCUCACGUCGCAGCCCCUGUCAGAUUCUGGUGAAUCCGCGAAUUCUGCUGUAUAUCUC [C12U U25C U60C] | 0.12 |

| Variant | self-cleavage |
| --- | --- |
| UAACAGGGGGCUACAGCAGAAGCGUUCACGUCGCAGCCCCUGUCAGAUCCUGGUGAAUCUGCGAAUCCUGCUGUAUAUCUC [C12U U49C U67C] | 0.38 |
| UAACAGGGGGCUACAGCAGAAGCGCUCACGUCGCAGCCCCCGUCAGAUUCUGGUGAAUCUGCGAAUUCUGCUGUAUACCUC [C12U U25C U41C U78C] | 0.23 |
| UAACAGGGGGCUACAGCUGAAGCGUUCACGUCGCAGCCCCUGUCAGAUUCAGGUGAAUCUGCGAAUUCUGCAGUAUAUCUC [C12U A18U U51A U72A] | 0.34 |
| UAACAGGGGGCUACAGCAGAAGCGUUCACGCCGCGGCCCCUGCCAGAUUCUGGUGAGUCUGCGAAUUCCGCUGUAUAUCUC [C12U U31C A35G U43C A57G U69C] | 0.09 |
| UAACAGGGGGCUACAGCAGAAGCGUUCACGUCGCAGCCCCUGUCAGAUUCUGGUGAAUCUGCGAAUUCCGCUGUCUGUCUC [C12U U69C A75C A77G] | 1.12 |
| UAACAGGGGGCUACAGCAGAAGCGUUCACGUCGCAGCCCCUGUCAGAUUCUGGUGUAUCAGCGAAUUCUGCUGUAUAUCUC [C12U A56U U60A] | 0.36 |
| UAACAGGGGGCUACAGCAGAAGCGUUCACGUCGCAGCCCCUGUCAGAUCCUGGUGAAUCUGCGGAUUCUGCUGUAUAUCUC [C12U U49C A64G] | 0.82 |
| UAACAGGGGGCUACAGCAGAAGCGUCCACGUCGCAGCCCCUGUCGGAUUCUGGUGGAUCUGCGAAUUCUGUUGUAUAUCUC [C12U U26C A45G A56G C71U] | 0.18 |
| UAACAGGGGGCUACAGCAGAAGCGUUCACGUCGCAGCCCCUGUCAGAUUCCGGUGUGUCUGCGAAUUCUUCUGUAUAUCUC [C12U U51C A56U A57G G70U] | 0.42 |
| UAACAGGGGGCUACAGCAGAAGCGUUAACGUCGCUGCCCCUGUCAGAUUCUGGUGAAUCUGCGAAUUCUGCUGUAUAUCUC [C12U C27A A35U] | 0.09 |
| UAACAGGGGGCUACAGCAGAAGCGUUCACGUCACAGCCCCUGUCAGAUUCUGGUGAAUCUGCGGACUCUGCUGUAUAUCUC [C12U G33A A64G U66C] | 0.09 |
| UAACAGGGGGCUACAGCAGAAGCGUUCGCGUCGCAGCCCCUGUCAGAUUCUGGUGAAUCCGCGAAUUCUGCUGUAUAUCUC [C12U A28G U60C] | 0.28 |
| UAACAGGGGGCUACAGCAGAAGCGCUAACGUCGCAGCCCCUGUCAGAUUCCUGGGAAUCUGCGAAUUCCGCUGUAUAUCUC [C12U U25C C27A U51C G52U U54G U69C] | 0.08 |
| UAACAGGGGGCCCCUGCUGAAGCGUUCACGUCGCAGCCCCUGCCAGAUUCCGGUGAACCCGCGAAUUCUGCUGUAUAUCUC [A13C A15U A18U U43C U51C U58C U60C] | 0.07 |
| UAACAGGGGGCUACAGCAGAAGCGUUCACACCGCAGCCUCUGUCAGAUUCUGGUGAAUCUGCGAAUUCUGCUGUAUACCUC [C12U G30A U31C C39U U78C] | 0.07 |
| UAACAGGGGGCUAUAGCAGAAGCGUUCACGUCGCAGCCCCUGUCAUAUUCUGGUGAAUCUGCGAAUUCUGCUGUAUAUCUC [C12U C14U G46U] | 0.76 |
| UAACAGGGGGCUACAGCAGAAGCAUCCGCGUCGCAGCCCCUGUCAGAUUCUGGUGAAUCAGCGAAUUCUGCUGUAUAUCUC [C12U G24A U26C A28G U60A] | 0.22 |
